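Following 48 hours of exposure in 96-well plates, responses at five concentrations were used to interpolate endpoints linearly. TGI denotes the concentration required for complete inhibition of growth.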 The source holds more than one record for some entries. They are shown here; other results are not. There may be further records. For part of these data: A record mostly stands for its own series of concentrations, which the source does not state; some values may only mark the edge of a range. For part of these data: Values that stand side by side repeat one measurement in other runs, samples, wells, individuals or studies. Records carry a tag for their origin. Letters count within one entry.
Assays:
Assay in all cases: NCI-60 cell line screen, 48 h
PC-3 prostate = system: PC-3 prostate
MALME-3M melanoma = system: MALME-3M melanoma
CCRF-CEM leukemia = system: CCRF-CEM leukemia

In the case of `CO[C@@H](C)Cn1c(=O)n(C)c2cnc3ccc(-c4cncc(C(C)(C)O)c4)cc3c21`, the TGI (PC-3 prostate) is reported as 22.4 µM [sample A, 1 test] and 916 nM [sample B, mean of 2 tests].

In the case of `Cc1ccc(NC(=O)c2ccc(CN3CC[C@H](N(C)C)C3)c(C(F)(F)F)c2)cc1Nc1nccc(-c2cncnc2)n1`, the TGI (MALME-3M melanoma) is reported as 803 nM [sample A, mean of 2 tests] and > 10 µM [sample B, 1 test].

In the case of `CCOC(=O)C(CC(C)C)NC(=O)C(Cc1ccc(N(CCCl)CCCl)cc1)NC(C)=O` (stereo not drawn), the TGI (CCRF-CEM leukemia) is reported as > 100 µM and 8.08 µM.

Reference: PubChem BioAssay (NCI)
